Experimental data reported in PubChem BioAssay AID485364 (National Center for Advancing Translational Sciences (NCATS), 2010).
Out of some 360,000 compounds screened, about 11,000 (3.1%) were called active. Inconclusive results, whose numbers are uncertain, are shown with a selection of clear calls. Calls follow the shape of the dose curve; as a rule, active = well fitted inhibition curve with a large enough effect; inconclusive = small, poorly fitted or top-dose-only effect; inactive = no such curve, though single readings can be large or run the other way. No potency is given beside an inconclusive call; the fits are too rough.

Target: Schistosoma mansoni thioredoxin glutathione reductase (TGR) (UniProt Q962Y6)
Assay: qHTS Assay for the Inhibitors of Schistosoma Mansoni Peroxiredoxins; also: nearly all actives have a fitted effect of over 60% in size
Settings: purified TGR, DTNB reduction, TNB absorbance 405 nm; activity change, negative = inhibition: at 114 µM (top of the series)
In short: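 TGR 20 nM + NADPH 100 uM (dispensed conc.), cpd preinc 15 min RT; start with NADPH (500 uM addition) then DTNB (15 mM addition). Kinetic TNB absorbance, 405 nm filter. Four-parameter Hill fit across titration.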
% is scaled to controls: 0 for no effect and ±100 for the full control effect; potency is read from the fitted curve at half-maximal effect; tags tell the direction and shape of the fitted curve.

**Q.** Which Potency does the source give for O=C(CCS(=O)(=O)c1ccc(Br)s1)NCc1ccc2c(c1)OCO2 here?
**A.** inconclusive [inhibitor, partial curve]

**Q.** How did the “activity change, negative = inhibition” value turn out when COc1ccc2c(=O)c(N3C(=O)c4ccccc4C3=O)coc2c1 was run?
**A.** inactive: -1.98%

**Q.** Cc1ccc(C)c(S(=O)(=O)n2nc(C)c(S(=O)(=O)N3CCC(C)CC3)c2C)c1 was tested. Which Potency did it give?
**A.** inconclusive [inhibitor, full curve, poor fit]

**Q.** COc1ccc(CC(=O)N2CCN(c3ccc(C4=NNC(=O)CC4C)cc3)CC2)cc1 (configuration not stated) was tested. Which “activity change, negative = inhibition” value did it give?
**A.** inactive: -14.9%

**Q.** With COc1cccc(C2=NN(C(=O)c3ccccc3)C(O)(C(F)(F)F)C2)c1 (configuration not stated) as the compound, how does the Potency read?
**A.** inconclusive [inhibitor, partial curve, poor fit]

**Q.** How did the Potency turn out when Cc1cc(C(=O)c2ccccc2)c(NC(=O)CCl)s1 was run?
**A.** active: 7.94 µM

**Q.** Which Potency does the source give for O=C(O)c1cccc(-n2cccc2/C=C2/NC(=O)N(Cc3ccccc3F)C2=O)c1 here?
**A.** inconclusive [inhibitor, partial curve]

**Q.** How did the “activity change, negative = inhibition” value turn out when COC(=O)c1ccc2c(c1)SC1=C(CCCC1=O)N2 was run?
**A.** inactive: -10.6%

**Q.** How did the Potency turn out when N#CC1=C(N)SC(N)=C(C#N)C1c1c(Cl)cccc1Cl was run?
**A.** inconclusive [inhibitor, partial curve]

**Q.** Cc1cccc(N2CN=C3SCC(=O)N3C2)c1 was tested. Which Potency did it give?
**A.** inconclusive [inhibitor, partial curve]

**Q.** How did the Potency turn out when CCCN1CCN(S(=O)(=O)c2cn(C)nc2C)CC1 was run?
**A.** inconclusive [inhibitor, partial curve]

**Q.** Which Potency does the source give for Cc1ccc(-n2nc(-c3ccco3)cc2C(=O)O)c(C)c1 here?
**A.** active: 11.2 µM

**Q.** For O=C(CSc1ccc(-c2ccco2)nn1)NCc1ccccc1Cl, which Potency is on record?
**A.** inconclusive [inhibitor, partial curve]

**Q.** Nc1c(C(=O)N2CCOCC2)oc2ccccc12 was tested. Which “activity change, negative = inhibition” value did it give?
**A.** inactive: -0.154%

**Q.** For Cc1occc1C(=O)N/N=C/C(Br)=C\c1ccccc1, which “activity change, negative = inhibition” value is on record?
**A.** inactive: -21.2%

**Q.** Which Potency does the source give for Cc1ccccc1-n1nc(C)c2c1N=C1C(Cl)=CC(Cl)=CN1C2c1ccc(C(=O)O)cc1 (configuration not stated) here?
**A.** active: 35.5 µM

**Q.** With COc1ccc(-c2nc(CS(=O)CC(=O)NCc3cccnc3)c(C)o2)cc1 (configuration not stated) as the compound, how does the “activity change, negative = inhibition” value read?
**A.** inactive: -33.2%

**Q.** With CCc1ccc(NCc2cc3cc4c(cc3n(CC(=O)Nc3ccccc3OC)c2=O)OCCO4)cc1 as the compound, how does the “activity change, negative = inhibition” value read?
**A.** inactive: -30.5%

**Q.** Cn1cccc1-c1cc(C(=O)N2CCc3c([nH]c4ccccc34)C2c2ccccn2)[nH]n1 (configuration not stated) was tested. Which Potency did it give?
**A.** inconclusive [inhibitor, full curve]

**Q.** Nn1c(SCC(=O)N2CCc3ccccc3C2)nnc1-c1cccs1 was tested. Which Potency did it give?
**A.** inconclusive [inhibitor, full curve, poor fit]

**Q.** Which Potency does the source give for COc1ccc(CCNCc2ccccc2F)cc1 here?
**A.** inconclusive [inhibitor, single point]

**Q.** CC(=O)Nc1ccc2c(c1)OCCOCCOc1cc(NC(C)=O)ccc1OCCO2 was tested. Which “activity change, negative = inhibition” value did it give?
**A.** inactive: -5.33%

**Q.** How did the Potency turn out when CC(=O)Nc1ccc(S(=O)(=O)N(C)CC(=O)OC2CCCCC2=O)cc1 (configuration not stated) was run?
**A.** inconclusive [inhibitor, partial curve]

**Q.** Which Potency does the source give for Cc1ccc(-c2noc(CN3CCC(C(N)=O)CC3)n2)cc1 here?
**A.** inconclusive [inhibitor, full curve, poor fit]

**Q.** With O=C(N/N=C\c1ccc([N+](=O)[O-])s1)C1COc2ccccc2O1 (configuration not stated) as the compound, how does the Potency read?
**A.** inconclusive [inhibitor, partial curve]

**Q.** With O=C(C1CCCN(Cc2ccc3c(c2)OCO3)C1)N1CCCC1 (configuration not stated) as the compound, how does the Potency read?
**A.** inconclusive [inhibitor, full curve, poor fit]

**Q.** Which Potency does the source give for O=C(/C=C/c1ccco1)c1cccnc1 here?
**A.** active: 12.6 µM

**Q.** How did the “activity change, negative = inhibition” value turn out when CCOC(=O)CN1CC23C=CC(O2)C(C(=O)NC2CCCCCC2)C3C1=O (configuration not stated) was run?
**A.** inactive: 3.54%

**Q.** For O=C1CN(CC(=O)N2CCOCC2)c2ccccc2O1, which Potency is on record?
**A.** active: 20 µM

**Q.** How did the “activity change, negative = inhibition” value turn out when COc1ccc(CNC(=O)CN(C(=O)CCC(=O)Nc2ccccn2)c2ccc3c(c2)OCO3)cc1 was run?
**A.** inactive: 5.04%

**Q.** How did the Potency turn out when Cn1c(SCc2nc3ccccc3c(=O)[nH]2)nnc1-c1ccco1 was run?
**A.** inconclusive [inhibitor, single point]

**Q.** Which Potency does the source give for COc1cc(C(=O)NNC(=O)CNC(=O)c2ccc(Br)o2)cc(OC)c1OC here?
**A.** inconclusive [inhibitor, partial curve, poor fit]

**Q.** For COc1ccccc1C(=O)NC(CCSC)C(=O)NNC(=O)c1ccncc1 (configuration not stated), which Potency is on record?
**A.** inconclusive [inhibitor, single point]

**Q.** Which Potency does the source give for COc1ccc(/C=C/C2=CCN(Cc3ccc(OC)cc3)CC2)cc1 here?
**A.** inconclusive [inhibitor, full curve, poor fit]

**Q.** With Cc1ccnc(NC(=O)c2ccc([N+](=O)[O-])o2)c1 as the compound, how does the Potency read?
**A.** inconclusive [inhibitor, partial curve]

**Q.** With O=C(Nc1ccccc1Oc1cccnc1)C1CCCN(C/C=C/c2ccccc2)C1 (configuration not stated) as the compound, how does the “activity change, negative = inhibition” value read?
**A.** inactive: -10.2%

**Q.** Which Potency does the source give for COc1ccc(NC(=O)CSc2oc(-c3ccc(F)cc3)nc2S(=O)(=O)c2ccc(C)cc2)c(OC)c1 here?
**A.** active: 44.7 µM

**Q.** For Cc1ccc(CN(Cc2cc3cc4c(cc3[nH]c2=O)OCCO4)Cc2nnnn2Cc2ccco2)cc1, which Potency is on record?
**A.** active: 11.2 µM

**Q.** For Nc1cccc2c1C(=O)N(C(=O)c1cccc(S(=O)(=O)N3CCCC3)c1)C2=O, which Potency is on record?
**A.** inconclusive [inhibitor, full curve, poor fit]

**Q.** How did the “activity change, negative = inhibition” value turn out when O=C1CC(=O)N(CCc2ccccc2)C(=O)N1CCc1ccccc1 was run?
**A.** inactive: -4.21%

**Q.** Which Potency does the source give for CC(C)Nc1ccc(Nc2ccccc2)cc1 here?
**A.** active: 8.91 µM

**Q.** Which Potency does the source give for Cc1cccc2nc(Cn3c(=O)n(CCCC(=O)NCc4ccco4)c(=O)c4ccccc43)cc(=O)n12 here?
**A.** inconclusive [inhibitor, partial curve]

**Q.** Which “activity change, negative = inhibition” value does the source give for CCOc1cc(CNC(C)C)c(Cl)cc1OCC(=O)NCCc1ccccc1 here?
**A.** inactive: 1.88%

**Q.** How did the “activity change, negative = inhibition” value turn out when COc1ccc(CSc2nnc(C)s2)cc1F was run?
**A.** inactive: 10.2%

**Q.** For Fc1ccccc1NC(=S)NCc1ccc2c(c1)OCO2, which Potency is on record?
**A.** inconclusive [inhibitor, single point]

**Q.** With COc1ccc(C(C2C(=O)CC(C)(C)CC2=O)C2C(=O)CC(C)(C)CC2=O)cc1 as the compound, how does the Potency read?
**A.** inconclusive [inhibitor, partial curve]

**Q.** With COc1cc(C(=S)N2CCOCC2)cc(OC)c1OS(=O)(=O)c1ccc(Cl)cc1 as the compound, how does the “activity change, negative = inhibition” value read?
**A.** inactive: 2.85%

**Q.** How did the Potency turn out when O=C(Nc1nccs1)c1ccc(-c2ccc(F)c(Cl)c2)o1 was run?
**A.** inconclusive [inhibitor, partial curve]

**Q.** With Cc1ccccc1-c1nc(CS(=O)(=O)CC(=O)NCCc2ccccc2)c(C)o1 as the compound, how does the Potency read?
**A.** inconclusive [inhibitor, partial curve]

**Q.** How did the Potency turn out when c1ccc2c(c1)nc(N1CCOCC1)c1c3ccccc3[nH]c21 was run?
**A.** inconclusive [inhibitor, partial curve]

**Q.** For COc1ccccc1/C=C/CN1CCC(n2nccc2NC(=O)C2CC2)CC1, which Potency is on record?
**A.** inconclusive [inhibitor, partial curve]

**Q.** How did the Potency turn out when O=C(O)C(c1ccccc1)N1C(=O)/C(=C\c2ccc(-c3cccc(Cl)c3)o2)SC1=S (configuration not stated) was run?
**A.** inconclusive [inhibitor, partial curve]

**Q.** For COC(=O)c1ccc2c(=O)[nH]c(CCl)nc2c1, which Potency is on record?
**A.** inconclusive [inhibitor, full curve]

**Q.** Cc1ccc(C)c(NC(CC(=O)c2ccccc2)C(=O)OCC(=O)c2cccs2)c1 (configuration not stated) was tested. Which Potency did it give?
**A.** active: 12.6 µM

**Q.** Which Potency does the source give for C/C=C/c1ccc(Oc2nnnn2-c2ccc(C(=O)O)cc2)c(OC)c1 here?
**A.** active: 35.5 µM

**Q.** How did the Potency turn out when CCOC(=O)c1cc(NC(=O)/C=C\C(=O)O)ccc1Cl was run?
**A.** inconclusive [inhibitor, partial curve]

**Q.** CC1(OC(=O)CCc2ccccc2)C(=O)C=C2C=C(c3ccc(C#N)cc3)N(Cc3ccco3)C=C2C1=O (configuration not stated) was tested. Which Potency did it give?
**A.** active: 35.5 µM

**Q.** Which “activity change, negative = inhibition” value does the source give for Cc1cc(C)nc(-n2ncc3c2CC(c2cccc(Cl)c2)CC3=O)n1 (configuration not stated) here?
**A.** inactive: 3.73%

**Q.** For CCc1ccc(OCCCC(=O)NCc2ccco2)cc1, which Potency is on record?
**A.** inconclusive [inhibitor, partial curve]

**Q.** For CCOC(=O)c1c(NC(=O)CSc2nnc(CNC(=O)c3ccco3)n2C)sc2c1CCC2, which Potency is on record?
**A.** inconclusive [inhibitor, partial curve]

**Q.** With COc1cc(NC(=S)Nc2ccc(OC(F)F)cc2)cc(OC)c1 as the compound, how does the Potency read?
**A.** inconclusive [inhibitor, partial curve]

**Q.** With O=C(CN1CCCN(S(=O)(=O)c2ccc(Br)cc2)CC1)Nc1cccc(C(F)(F)F)c1 as the compound, how does the Potency read?
**A.** active: 35.5 µM

**Q.** How did the “activity change, negative = inhibition” value turn out when Cc1[nH]c2ccccc2c1/C=N/NC(=O)c1cc(-c2ccncc2)nc2ccccc12 was run?
**A.** inactive: 1.7%

**Q.** For CC1CCCC(NC(=O)C2CCN(S(=O)(=O)c3cnc[nH]3)CC2)C1C (configuration not stated), which “activity change, negative = inhibition” value is on record?
**A.** inactive: 1.15%

**Q.** Which Potency does the source give for Cc1ccc(NC(=O)NC(=O)CN2CCN(c3ccc(O)cc3)CC2)c(C)c1 here?
**A.** inconclusive [inhibitor, partial curve]

**Q.** With CC(C)NS(=O)(=O)c1ccc(CCC(=O)NCc2ccco2)cc1 as the compound, how does the Potency read?
**A.** active: 44.7 µM

**Q.** With CCN1C(C(=O)c2ccccc2)=C(OC(=O)COc2ccc(OC)cc2)c2ccccc2S1(=O)=O as the compound, how does the Potency read?
**A.** active: 11.2 µM

**Q.** Which Potency does the source give for Cc1cccc(C)c1NC(=O)CSc1nnc(-c2ccoc2C)n1C here?
**A.** inconclusive [inhibitor, single point]

**Q.** For COc1ccc(OCc2cc(C(=O)NC3CCOCC3)no2)c2ccccc12, which Potency is on record?
**A.** inconclusive [inhibitor, partial curve]

**Q.** Which Potency does the source give for NC(=O)C1CCN(c2oc(/C=C/c3ccc(F)cc3)nc2S(=O)(=O)c2ccccc2)CC1 here?
**A.** inconclusive [inhibitor, full curve, poor fit]

**Q.** How did the Potency turn out when Cc1cc2c3c(c1)C(C)CC(C)(C)N3C(=O)C2=C(C#N)C#N (configuration not stated) was run?
**A.** active: 3.98 µM

**Q.** Which Potency does the source give for CCOc1cccc(CN2CCC(n3nccc3NC(=O)C3CC3)CC2)c1O here?
**A.** inconclusive [inhibitor, full curve]
